# Assay results from PubChem BioAssay AID540317 (National Center for Advancing Translational Sciences (NCATS), 2011).
# About 2,200 (0.56%) of roughly 390,000 compounds were called active. This list was built around the results that the source calls inconclusive (neither active nor inactive); the mix of calls is not that of the screen. The call rests on the fitted dose curve; in most records, active means well fitted inhibition curve with a large enough effect; inconclusive means small, poorly fitted or top-dose-only effect; inactive means no such curve, though single readings can be large or run the other way. Where the call is inconclusive, the potency comes from a doubtful curve fit.
# Target: Chromobox protein homolog 1 (Homo sapiens) (UniProt P83916)
# Sequence of UniProt P83916 (P83916 whole entry, looked up): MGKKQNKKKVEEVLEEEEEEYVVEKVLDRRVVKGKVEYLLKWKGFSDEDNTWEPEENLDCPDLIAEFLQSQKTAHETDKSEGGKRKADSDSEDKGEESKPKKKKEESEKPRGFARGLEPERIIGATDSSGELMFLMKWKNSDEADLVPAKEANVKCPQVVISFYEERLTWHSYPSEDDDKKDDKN
# Test: HTS for Inhibitors of HP1-beta Chromodomain Interactions with Methylated Histone Tails; further: nearly all actives have a fitted effect of over 70% in size
# Details: AlphaScreen HP1-beta / biotin-H3K9me3 peptide binding; series mostly up to 114 µM; activity change, negative = inhibition: at the top concentration
# Procedure, shortened: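 HP1-beta protein (50 nM final) preincubated 30 min at room temperature with biotinylated H3(1-18)K9me3 peptide (50 nM) in PBS pH 7.4, 0.01% Tween-20, then compound added for 30 min. AlphaScreen streptavidin donor/nickel chelate acceptor beads (10 ug/mL final), 30 min dark, luminescence read.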
# Potency means the concentration at half of the fitted maximal effect; tags describe the fitted curve by direction and shape.
Compound,Potency,"activity change, negative = inhibition"
CCN(CC)c1ccc(S(=O)(=O)N2CCOCC2)cc1NC(=O)CN1CCN(Cc2ccccc2)CC1,"inconclusive: 14.1 µM [inhibitor, full curve, poor fit]",
CN(C)S(=O)(=O)c1cc(NC(=O)CNCc2ccc(F)cc2)ccc1Cl,"inconclusive: 35.5 µM [inhibitor, partial curve]",
NC(=O)CC1Nc2cccc3cccc(c23)NC1=O (stereo not given),"inconclusive: 25.1 µM [inhibitor, partial curve, poor fit]",
COc1ccc(OC)c(NC(=O)CSc2nnc(C3CCCCC3)n2-c2ccccc2)c1,"inconclusive: 70.8 µM [inhibitor, single point]",
COc1ccc(/C=C2\SC(=S)N(CCCC(=O)N3CCN(C)CC3)C2=O)cc1,"inconclusive: 44.7 µM [inhibitor, partial curve, poor fit]",
CCOC(=O)/C(=C\c1c[nH]c2ccccc12)NC(C)=O,"inconclusive: 39.8 µM [inhibitor, single point]",
Cc1ccc(NC(=O)Cn2c(-c3ccc4c(c3)OCO4)cn(-c3ccccc3)c2=O)cc1,"inconclusive: 10 µM [inhibitor, full curve, poor fit]",
COc1ccc(N2CC(C(=O)OCC(=O)Nc3cccc(C)c3)CC2=O)cc1 (stereo not given),,inactive: 22.4%
CCN(CC)CCNC(=O)c1ccc(NC(=O)c2cccc(S(=O)(=O)N3CCc4ccccc43)c2)cc1,"inconclusive: 79.4 µM [inhibitor, partial curve, poor fit]",
COc1cc(OC)cc(C(=O)N2CCC(C(=O)N3CCOCC3)CC2)c1,"inconclusive: 89.1 µM [inhibitor, single point]",
CCOC(=O)CN1C(=O)S/C(=C/C=C/c2ccc(N(C)C)cc2)C1=O,active: 12.6 µM,
CN(C)CCOc1cccc(Cl)c1,"inconclusive: 15.8 µM [inhibitor, full curve, poor fit]",
CCOc1ccc(C=NNc2ccc(S(=O)(=O)Nc3ccccc3C(=O)O)cc2[N+](=O)[O-])cc1,active: 39.8 µM,
Cc1cc(/C=N/Nc2ccc([N+](=O)[O-])cn2)c(C)n1-c1ccccc1,,inactive: 6.57%
COc1ccccc1N1CCN(C(=S)Nc2ccc3nc(N4CCOCC4)cc(C)c3c2)CC1,"inconclusive: 20 µM [inhibitor, partial curve, poor fit]",
CCOC(=O)C1=NOC2C3CC(C12)C1C(=O)N(CCc2ccc(OC)c(OC)c2)C(=O)C31 (stereo not given),"inconclusive: 31.6 µM [inhibitor, full curve]",
Cc1ccc2nc3c(cc(C(N)=S)c(=N)n3CCCOC(C)C)c(=O)n2c1,"inconclusive: 56.2 µM [inhibitor, partial curve, poor fit]",
Cn1nc(C(=O)N2CCN(c3ccccc3F)CC2)c2c1-c1ccccc1SC2,,inactive: -19.8%
CCOc1ccc(-c2cnc(NCc3ccc(OC)cc3OC)n2C)cc1,"inconclusive: 17.8 µM [inhibitor, full curve]",
CC(C)(C)NC(=O)C(c1ccncc1)N(Cc1ccco1)C(=O)c1ccc(-c2ccccc2)[nH]1 (stereo not given),"inconclusive: 44.7 µM [inhibitor, partial curve]",

Compound,Potency,"activity change, negative = inhibition"
Cc1ccc2nc(N(Cc3cccnc3)C(=O)C3COc4ccccc4O3)sc2c1 (stereo not given),,inactive: 49.8%
Clc1cccc(-c2ccc(C=Nc3ccc(N4CCOCC4)cc3)o2)c1,"inconclusive: 22.4 µM [inhibitor, full curve, poor fit]",
CCc1c(C)sc(NC(=O)C2CCCO2)c1C#N (stereo not given),"inconclusive: 25.1 µM [inhibitor, partial curve]",
O=C(NNC(=S)NC1CCCCC1)c1sc2ccccc2c1Cl,"inconclusive: 14.1 µM [inhibitor, partial curve, poor fit]",
CC1CC(=O)C2=C(C1)Nc1nc3ccccc3n1C2c1cccnc1 (stereo not given),,inactive: 24.1%
O=[N+]([O-])c1cc(S(=O)(=O)Nc2ccc(Cl)cc2)ccc1N/N=C/c1ccncc1,,inactive: -0.0924%
CC(=O)/C(=N/Nc1ccccc1[N+](=O)[O-])N1CCCc2ccccc21,active: 7.94 µM,
Cc1c(C(=O)c2ccc(Cl)cc2[N+](=O)[O-])c2ccccn2c1CCC#N,"inconclusive: 50.1 µM [inhibitor, partial curve, poor fit]",
S=C(Nc1ccccc1)c1ccccn1,"inconclusive: 39.8 µM [inhibitor, full curve, poor fit]",
Cc1cccc(-c2nn(-c3ccccc3)cc2CNCCO)c1,"inconclusive: 10 µM [inhibitor, full curve, poor fit]",
COc1ccc(Br)cc1CN1CCN(C(=O)c2ccc(OC)c(OC)c2)CC1,"inconclusive: 14.1 µM [inhibitor, full curve, poor fit]",
COc1ccc(/C=C2/CCC(CN3CCOCC3)C2=O)cc1 (stereo not given),"inconclusive: 50.1 µM [inhibitor, single point]",
Nc1cc(S(=O)(=O)Nc2cc(Cl)ccc2Cl)ccc1N1CCCC1,"inconclusive: 35.5 µM [inhibitor, partial curve]",
O=C(O)c1ccccc1NC(=O)N1c2ccccc2Sc2ccccc21,"inconclusive: 28.2 µM [inhibitor, full curve]",
CCOc1cc(C(=O)N2CCCN(C)CC2)cc(OCC)c1OCC,,inactive: 13.3%
C#CCOCCOCCOCCNc1nc(N2CCN(C(=O)CCCCCCCCCCNC(=O)Cn3cc(CCCCCN)nn3)CC2)nc(N2CCN(C(=O)CCCCCCCCCCNC(=O)Cn3cc(CCCCCN)nn3)CC2)n1,"inconclusive: 70.8 µM [inhibitor, partial curve]",
CCC(C(=O)NC(C)(C)C)N(C(=O)Cn1nnc(-c2ccccc2F)n1)c1cccc2c1CCCC2 (stereo not given),,inactive: 3.19%
Cn1cccc1/C=C1\SC(=Nc2cccc(O)c2)NC1=O,"inconclusive: 28.2 µM [inhibitor, full curve]",
COc1cc(/C=C2\SC(=O)N(CCN)C2=O)ccc1OS(=O)(=O)c1cc(C)ccc1C,"inconclusive: 50.1 µM [inhibitor, partial curve]",
Cc1ccccc1OCCNc1cc(N2CC(C)NC(C)C2)ccc1[N+](=O)[O-] (stereo not given),"inconclusive: 35.5 µM [inhibitor, partial curve]",
